Test results: PubChem BioAssay AID1345082 (National Center for Advancing Translational Sciences (NCATS), 2018)
The campaign covered roughly 94,000 compounds. About 4,000 (4.3%) were called active. This list was built around the results that the source calls inconclusive (neither active nor inactive); the mix of calls is not that of the screen. Calls follow the shape of the dose curve; as a rule, active = well fitted inhibition curve with a large enough effect; inconclusive = small, poorly fitted or top-dose-only effect; inactive = no such curve, though single readings can be large or run the other way. Potencies beside an inconclusive call are fits to weak or partial responses and may not hold up.

Assay: Cytotoxic Profiling in NIH 3T3 Cell Line of Diverse Libraries Using Quantitative High-Throughput Screening; also: nearly all actives have a fitted effect of over 55% in size
Conditions: NIH 3T3 viability, CellTiter-Glo ATP luminescence, 48-72 h; series mostly up to 96.7 µM
Outline: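 Cytotoxicity is measured as loss of cellular ATP: NIH 3T3 cells (400/well) are exposed to compound for 48 or 72 hr at 37 °C, then CellTiter-Glo luminescence is imaged after 10 min at room temperature.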
Potency is read from the fitted curve at half-maximal effect; tags tell the direction and shape of the fitted curve.

Row | Structure (SMILES) | Potency
1 | COc1nc(C)c(C(=O)N2CCC(c3[nH]ncc3-c3ccccc3)CC2)s1 | inconclusive: 10 µM [inhibitor, full curve, poor fit]
2 | CN(Cc1ccccc1)Cc1cc(CC2(NCc3ccc(OC(F)(F)F)cc3)COC2)no1 | inconclusive: 79.4 µM [inhibitor, partial curve]
3 | COc1ccc(CNC(=O)C2CCN(c3nccc(Nc4ccc(C)cc4)n3)CC2)cc1 | active: 28.2 µM
4 | CN1CCOc2c(C(=O)NCCC(N)=O)cc(-c3ccccc3O)cc21 | inconclusive: 89.1 µM [inhibitor, partial curve, poor fit]
5 | COc1cccc(C(=O)N2CCC(c3nn(-c4ccccn4)c(=O)[nH]3)CC2)c1 | inactive
6 | CC1=C[C@@H](CN2CCOCC2)[C@H](C(C)C)C[C@H]1Cc1nnc(-c2ccccc2F)o1 | inconclusive: 56.2 µM [inhibitor, partial curve, poor fit]
7 | CN1CCN(C(=O)c2cn3cc(-c4ccccc4)sc3n2)CC1 | inconclusive: 100 µM [inhibitor, partial curve, poor fit]
8 | C[C@@]12CO[C@@H](COc3ccccc3)O[C@@H]1CC[C@]1(C)C2CC[C@@H](O)[C@H]1CC(=O)NCc1cc(F)cc(F)c1 (some centres undefined) | inconclusive: 44.7 µM [inhibitor, partial curve, poor fit]
9 | Cc1ccc(-c2ncc(C(=O)Nc3cc(F)cc(F)c3)c(-c3ccncc3)n2)cc1 | inconclusive: 44.7 µM [inhibitor, partial curve, poor fit]
10 | O=C(c1cccc(OC(F)(F)F)c1)N1CCN(c2cc(-c3ccc(F)cc3)[nH]n2)CC1 | active: 35.5 µM
11 | COc1ccc(C(=O)NC[C@@H]2C=C(C)[C@H](Cc3nnc(-c4ccncc4)o3)C[C@H]2C(C)C)cc1 | inconclusive: 50.1 µM [inhibitor, partial curve, poor fit]
12 | O=C(NCc1ccccn1)c1cn2cc(-c3ccc(C(F)(F)F)cc3)sc2n1 | inactive
13 | Cc1ccc(C(=O)N2CCCN(c3nc4ncccc4o3)CC2)cc1 | inactive
14 | COc1ccc(CNC(=O)c2noc(-c3ccc(F)cc3)n2)cc1OC | inactive
15 | Cc1cc(C)c2[nH]c(C(=O)N(C)Cc3ccccc3-n3cccn3)c(C)c2c1 | inconclusive: 50.1 µM [inhibitor, partial curve, poor fit]
16 | O=C(NCc1ccccc1Cl)C1CCN(c2nccc(Nc3ccccc3F)n2)CC1 | active: 39.8 µM
17 | COc1ccccc1-c1nnc([C@H]2CCN(Cc3cccnc3)C2)o1 | inactive
18 | Cc1cccc(N2CCN(C(=O)C3c4ccccc4CC(=O)N3C)CC2)c1C (centres undefined) | inconclusive: 50.1 µM [inhibitor, partial curve, poor fit]
19 | CC1=C[C@@H](CNCc2ccncc2)[C@H](C(C)C)C[C@H]1Cc1nnc(-c2ccc(N(C)C)cc2)o1 | inconclusive: 50.1 µM [inhibitor, partial curve, poor fit]
20 | CCn1cc(-c2ccc(C)cc2)cc1C(=O)NCCN1CCOCC1 | inactive

Row | Structure (SMILES) | Potency
21 | O=[S+]([O-])(c1ccc(C(F)(F)F)cc1)N1CCC2(CC1)CC(c1cccc(C(F)(F)F)c1)=NO2 | inactive
22 | CNS(=O)(=O)c1ccc(CN(CCOC)Cc2ccc(C)cc2)cc1 | inconclusive: 50.1 µM [inhibitor, partial curve, poor fit]
23 | COc1cncc(Nc2ncc(-c3c(C)noc3C)c3c2OCC3)c1 | inconclusive: 25.1 µM [inhibitor, full curve]
24 | CCOC(=O)C1(Cc2ccccc2)CCCN(C(=O)c2ccccc2SC)C1 (centres undefined) | inconclusive: 70.8 µM [inhibitor, single point]
25 | c1ccc(CN(Cc2ccoc2)[C@@H]2C[C@@H]3CO[C@H](c4ccccc4)C[C@@H]3C2)cc1 | inconclusive: 70.8 µM [inhibitor, partial curve, poor fit]
26 | COCc1nn(CC(=O)N2CCc3sccc3C2)c(=O)n1-c1ccccc1 | inactive
27 | CCc1nc2c(c(-c3ccc(O)cc3)n1)CN(C(=O)C1CCCC1)CC2 | inconclusive: 50.1 µM [inhibitor, partial curve, poor fit]
28 | CCOC(=O)c1ccc(NC(=O)N2Cc3[nH]cnc3C[C@H]2c2nc(-c3ccc(Cl)cc3)no2)cc1 | inconclusive: 50.1 µM [inhibitor, partial curve, poor fit]
29 | COC(=O)C1=C(C)N=C2SC=C(CC(=O)N3CCCC3)N2C1c1cccc(OC)c1 (centres undefined) | inconclusive: 50.1 µM [inhibitor, partial curve, poor fit]
30 | CCN(CC)c1ccc(NC(=O)CCn2ccn3nc4c(c3c2=O)CCCC4)c(C)c1 | active: 39.8 µM
31 | COc1ccccc1C(=O)NCC1COc2ncncc2C(=O)N1Cc1ccccc1 (centres undefined) | inconclusive: 12.6 µM [inhibitor, full curve, poor fit]
32 | CC(=O)N1CCc2nn(CC(=O)N3CCN(c4ccccc4)CC3)c(=O)cc2C1 | inconclusive: 79.4 µM [inhibitor, partial curve, poor fit]
33 | Cc1cn2nc(C(=O)N3CCOCC3)cc2c(N(C)Cc2ccccc2)n1 | inconclusive: 39.8 µM [inhibitor, partial curve]
34 | CCCN1CCN(C(=O)CC2CCCN(c3cnn(C)c(=O)c3)C2)CC1 (centres undefined) | inconclusive: 63.1 µM [inhibitor, partial curve, poor fit]
35 | Cc1cc(-c2nc(C3CCOCC3)nn2Cc2ccccc2C)c(C)o1 | inconclusive: 50.1 µM [inhibitor, partial curve, poor fit]
36 | Cc1cc(C(=O)Nc2ccc(C(O)[C@H]3COCC(=O)N3)cc2)n(C)n1 (some centres undefined) | inactive
37 | COc1ccccc1Nc1ccnc(N2CCC(NC(=O)Cc3cccc(Cl)c3)CC2)n1 | active: 31.6 µM
38 | COc1cccc(C(=O)N2CCCCCC2c2nnc(-c3ccccc3)o2)c1 (centres undefined) | inactive
39 | COC(=O)[C@@H]1Cc2ncn(Cc3ccc(Cl)cc3)c2CN1S(=O)(=O)c1cccc2c(N(C)C)cccc12 | inconclusive: 79.4 µM [inhibitor, partial curve, poor fit]
